Laboratory results as given in the supplement of paper PMC8728848.
This is one part of a sample in which the strongest signals are shown more often than they occur.

Each substance was assayed on Man(a1-2)Man(a1-3)[Man(a1-2)Man(a1-6)]Man (assay: glycan array binding signal (z-score within array); higher = stronger binding). Conditions: glycan notation: IUPAC condensed, linker removed.
Summary of the method: (§1)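 The binding signal is a Z-score computed within each array and averaged over linkers. Arrays of the same protein sequence at different concentrations or buffers were also averaged together. Data originate from 3228 arrays in the Consortium for Functional Glycomics database, kept only where the protein sequence was available.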

Substance | glycan array binding signal (z-score)
Collectin K1 (Homo sapiens) (chain not printed) | 2.62
Galectin-8 C-terminal CRD (Homo sapiens) (chain not printed) | -0.294
M-Ficolin G221F A256V (Homo sapiens) (chain not printed) | -0.312
Serum Amyloid P component (Homo sapiens) (chain not printed) | -0.47

What follows are substances tested on Man(a1-2)Man(a1-6)[Man(a1-3)]Man(a1-6)[Man(a1-2)Man(a1-2)Man(a1-3)]Man(b1-4)GlcNAc(b1-4)GlcNAc in the same assay as above. Conditions: glycan notation: IUPAC condensed, linker removed.
Summary of the method: as §1

Substance | glycan array binding signal (z-score)
Meso764 (Homo sapiens) (chain not printed) | -0.696
Collectin K1 (Homo sapiens) (chain not printed) | 1.88
M-Ficolin (Homo sapiens) (chain not printed) | -0.155

Each substance was assayed on Man(a1-3)[Man(a1-6)]Man(a1-6)[Man(a1-2)Man(a1-3)]Man(b1-4)GlcNAc(b1-4)GlcNAc in the same assay as above. Conditions: glycan notation: IUPAC condensed, linker removed.
Summary of the method: as §1

Substance | glycan array binding signal (z-score)
FGF2 (chain not printed) | -0.267
Gal 8 long (Homo sapiens) (chain not printed) | 4.24
Siglec-2 (Homo sapiens) (chain not printed) | 2.45
